Where a chain is given by its changes, count along the chain named. This is one part of the list.

The labels stand for the following.
T1: RBFOX1 RRM RbFoxmut (Fox-RRM*) (Homo sapiens, UniProt Q9NWB1 109-208, R118D;E147R;N151S;E152T)
T1 sequence: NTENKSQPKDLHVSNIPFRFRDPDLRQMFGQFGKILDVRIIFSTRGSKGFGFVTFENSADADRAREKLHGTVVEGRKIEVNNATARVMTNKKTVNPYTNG

B1: GAAUUAG (DNA:RNA)
RNA: GGGAGACCGGAAUUCAGAUUGUCCGAAUUAGUUAAAUCCCGUCGUAGCCACCA
DNA 1: CAATCTGAATTCCGGTCTCCC
DNA 2: TGGTGGCTACGACGGGATT
B2: AGGCACU (DNA:RNA)
RNA: GGGAGACCGGAAUUCAGAUUGUCCAGGCACUUUAAAUCCCGUCGUAGCCACCA
DNA 1: CAATCTGAATTCCGGTCTCCC
DNA 2: TGGTGGCTACGACGGGATT
B3: CCAAUUC (DNA:RNA)
RNA: B1 RNA with G25C, A26C, U28A, A30U, G31C
DNA 1: CAATCTGAATTCCGGTCTCCC
DNA 2: TGGTGGCTACGACGGGATT
B4: UAGCGAA (DNA:RNA)
RNA: B2 RNA with A25U, G26A, A29G, C30A, U31A
DNA 1: CAATCTGAATTCCGGTCTCCC
DNA 2: TGGTGGCTACGACGGGATT
B5: CGUAGUA (DNA:RNA)
RNA: B2 RNA with A25C, G27U, C28A, A29G, C30U, U31A
DNA 1: CAATCTGAATTCCGGTCTCCC
DNA 2: TGGTGGCTACGACGGGATT
B6: AUGGGCC (DNA:RNA)
RNA: B2 RNA with G26U, C28G, A29G, U31C
DNA 1: CAATCTGAATTCCGGTCTCCC
DNA 2: TGGTGGCTACGACGGGATT
B7: AAGCGGU (DNA:RNA)
RNA: B2 RNA with G26A, A29G, C30G
DNA 1: CAATCTGAATTCCGGTCTCCC
DNA 2: TGGTGGCTACGACGGGATT
B8: GGAGAGU (DNA:RNA)
RNA: B2 RNA with A25G, G27A, C28G, C30G
DNA 1: CAATCTGAATTCCGGTCTCCC
DNA 2: TGGTGGCTACGACGGGATT
B9: UCUGUUU (DNA:RNA)
RNA: B2 RNA with A25U, G26C, G27U, C28G, A29U, C30U
DNA 1: CAATCTGAATTCCGGTCTCCC
DNA 2: TGGTGGCTACGACGGGATT
B10: AAGACGG (DNA:RNA)
RNA: B2 RNA with G26A, C28A, A29C, C30G, U31G
DNA 1: CAATCTGAATTCCGGTCTCCC
DNA 2: TGGTGGCTACGACGGGATT
B11: AAUCAGA (DNA:RNA)
RNA: B2 RNA with G26A, G27U, C30G, U31A
DNA 1: CAATCTGAATTCCGGTCTCCC
DNA 2: TGGTGGCTACGACGGGATT
B12: AGUCGCC (DNA:RNA)
RNA: B2 RNA with G27U, A29G, U31C
DNA 1: CAATCTGAATTCCGGTCTCCC
DNA 2: TGGTGGCTACGACGGGATT
B13: UCCGACU (DNA:RNA)
RNA: B2 RNA with A25U, G26C, G27C, C28G
DNA 1: CAATCTGAATTCCGGTCTCCC
DNA 2: TGGTGGCTACGACGGGATT
B14: CGACUCC (DNA:RNA)
RNA: B2 RNA with A25C, G27A, A29U, U31C
DNA 1: CAATCTGAATTCCGGTCTCCC
DNA 2: TGGTGGCTACGACGGGATT
B15: UGUUCCA (DNA:RNA)
RNA: B2 RNA with A25U, G27U, C28U, A29C, U31A
DNA 1: CAATCTGAATTCCGGTCTCCC
DNA 2: TGGTGGCTACGACGGGATT
B16: CAGGGUA (DNA:RNA)
RNA: B2 RNA with A25C, G26A, C28G, A29G, C30U, U31A
DNA 1: CAATCTGAATTCCGGTCTCCC
DNA 2: TGGTGGCTACGACGGGATT
B17: AGCCGCC (DNA:RNA)
RNA: B2 RNA with G27C, A29G, U31C
DNA 1: CAATCTGAATTCCGGTCTCCC
DNA 2: TGGTGGCTACGACGGGATT
B18: CAAAUAA (DNA:RNA)
RNA: B1 RNA with G25C, U28A, G31A
DNA 1: CAATCTGAATTCCGGTCTCCC
DNA 2: TGGTGGCTACGACGGGATT
B19: GACCCUA (DNA:RNA)
RNA: B1 RNA with A27C, U28C, U29C, A30U, G31A
DNA 1: CAATCTGAATTCCGGTCTCCC
DNA 2: TGGTGGCTACGACGGGATT
B20: GGAUAUC (DNA:RNA)
RNA: B1 RNA with A26G, U29A, A30U, G31C
DNA 1: CAATCTGAATTCCGGTCTCCC
DNA 2: TGGTGGCTACGACGGGATT
B21: GCGACCU (DNA:RNA)
RNA: B2 RNA with A25G, G26C, C28A, A29C
DNA 1: CAATCTGAATTCCGGTCTCCC
DNA 2: TGGTGGCTACGACGGGATT
B22: AUCUAUC (DNA:RNA)
RNA: B2 RNA with G26U, G27C, C28U, C30U, U31C
DNA 1: CAATCTGAATTCCGGTCTCCC
DNA 2: TGGTGGCTACGACGGGATT
B23: UCGCCCU (DNA:RNA)
RNA: B2 RNA with A25U, G26C, A29C
DNA 1: CAATCTGAATTCCGGTCTCCC
DNA 2: TGGTGGCTACGACGGGATT
B24: CAGAUUU (DNA:RNA)
RNA: B2 RNA with A25C, G26A, C28A, A29U, C30U
DNA 1: CAATCTGAATTCCGGTCTCCC
DNA 2: TGGTGGCTACGACGGGATT
B25: UUGGAAA (DNA:RNA)
RNA: B2 RNA with A25U, G26U, C28G, C30A, U31A
DNA 1: CAATCTGAATTCCGGTCTCCC
DNA 2: TGGTGGCTACGACGGGATT
B26: GCAUAGU (DNA:RNA)
RNA: B1 RNA with A26C, U29A, A30G, G31U
DNA 1: CAATCTGAATTCCGGTCTCCC
DNA 2: TGGTGGCTACGACGGGATT
B27: AACAGGA (DNA:RNA)
RNA: B2 RNA with G26A, G27C, C28A, A29G, C30G, U31A
DNA 1: CAATCTGAATTCCGGTCTCCC
DNA 2: TGGTGGCTACGACGGGATT
B28: CUUGUCU (DNA:RNA)
RNA: B2 RNA with A25C, G26U, G27U, C28G, A29U
DNA 1: CAATCTGAATTCCGGTCTCCC
DNA 2: TGGTGGCTACGACGGGATT
B29: CGGACAG (DNA:RNA)
RNA: B2 RNA with A25C, C28A, A29C, C30A, U31G
DNA 1: CAATCTGAATTCCGGTCTCCC
DNA 2: TGGTGGCTACGACGGGATT
B30: CGAUCUC (DNA:RNA)
RNA: B1 RNA with G25C, A26G, U29C, A30U, G31C
DNA 1: CAATCTGAATTCCGGTCTCCC
DNA 2: TGGTGGCTACGACGGGATT
B31: CCUCGAU (DNA:RNA)
RNA: B2 RNA with A25C, G26C, G27U, A29G, C30A
DNA 1: CAATCTGAATTCCGGTCTCCC
DNA 2: TGGTGGCTACGACGGGATT

The test concerns the target T1, RBFOX1 RRM RbFoxmut (Fox-RRM*). Briefly: EMSA; HiTS-Eq, 1 nM pool, 10 min; buffer printed only for the single-RNA assays: 10 mM Tris pH 7.5, 150 mM NaCl, 3.4 mM EDTA, 0.001% NP-40, 30 C. To be noted: tags: His6 N-terminal (pET28a); label: 5' 32P. The method, boiled down: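 Relative association constants, normalised to the cognate motif, were derived by comparing read counts of each RNA species with those of the control reaction. The RNA sequenced was the free fraction, separated by 8% native PAGE after a 10 min equilibration in 50 µL of 1 nM 5′-radiolabelled RNA (7 randomized nucleotides) with increasing concentrations of purified wild-type or mutant RbFox RRM.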
Turning to B1, the binding signal is 0.102 KA relative to UGCAUGU. B2: the binding signal was 0.0503 KA relative to UGCAUGU. On to B3, for which the binding signal was 0.0861 KA relative to UGCAUGU.

As to B4, the binding signal is 0.0975 KA relative to UGCAUGU. For the molecule B5, the binding signal was 0.173 KA relative to UGCAUGU. As to B6, the binding signal is 0.259 KA relative to UGCAUGU. For B7, the binding signal was 0.101 KA relative to UGCAUGU. Consider B8, for which the binding signal is 0.0935 KA relative to UGCAUGU.

Regarding B9, the binding signal is 0.0825 KA relative to UGCAUGU. Consider B10, for which the binding signal was 0.081 KA relative to UGCAUGU. As for B11, the figure is 0.0398 KA relative to UGCAUGU; as for B12, 0.0636 KA relative to UGCAUGU; as for B13, 0.0598 KA relative to UGCAUGU. As for B14, the figure is 0.0497 KA relative to UGCAUGU.

Regarding B15, the binding signal is 0.123 KA relative to UGCAUGU. Take B16: the binding signal is 0.151 KA relative to UGCAUGU.

As for B17, the binding signal was 0.0809 KA relative to UGCAUGU. In the case of B18 it was 0.121 KA relative to UGCAUGU. For the molecule B19, the binding signal is 0.0941 KA relative to UGCAUGU.

As for B20, the binding signal is 0.146 KA relative to UGCAUGU. In the case of B21, the binding signal was 0.0505 KA relative to UGCAUGU. For B22, the binding signal was 0.13 KA relative to UGCAUGU. As for B23, the figure is 0.0819 KA relative to UGCAUGU. For the molecule B24, the binding signal is 0.101 KA relative to UGCAUGU.

B25: the binding signal is 0.0971 KA relative to UGCAUGU. Take B26: the binding signal is 0.192 KA relative to UGCAUGU. For B27, the binding signal is 0.0817 KA relative to UGCAUGU.

B28: the binding signal was 0.0774 KA relative to UGCAUGU. B29: the binding signal was 0.0568 KA relative to UGCAUGU. Take B30: the binding signal is 0.0528 KA relative to UGCAUGU. As for B31, the figure is 0.0769 KA relative to UGCAUGU.

The values above are taken from article PMC9911399, “Two distinct binding modes provide the RNA-binding protein RbFox with extraordinary sequence specificity”.
